{
  "source": "PubChem BioAssay AID662",
  "about": "(National Center for Advancing Translational Sciences (NCATS), 2007)",
  "note": "In all, about 71,000 compounds went through this assay and about 1,800 (2.5%) were called active. Inconclusive results, whose numbers are uncertain, are shown with a selection of clear calls. Calls come from the whole dose curve; as a rule, active = well fitted activation curve with a large enough effect in the signal ratio, with a control signal flat (not every such curve was filed as active); inconclusive = small, poorly fitted or top-dose-only effect, or effect the other way, or a change in a side signal; inactive = flat fitted curve, though single readings scatter; the % refers to the signal ratio. Potencies beside an inconclusive call are fits to weak or partial responses and may not hold up. Potency is the fitted concentration of half-maximal effect; tags give direction and shape of the fitted curve.",
  "data": [
    {"assay": "Cell signaling CRE-BLA (Fsk stim); for activity change, negative = inhibition: % of control where 0% means no effect", "conditions": "CHO CRE-bla reporter (cAMP response element driving beta-lactamase), forskolin EC10, beta-lactamase ratio; activity change, negative = inhibition: at 38.2 µM (top of the series) unless noted", "source_text": "NIH Molecular Libraries Screening Centers Network [MLSCN]\nNIH Chemical Genomics Center [NCGC]\nAssay Provider: Marshall W. Nirenberg, U.S. National heart lung & blood institute\nMemories persist for different lengths of time, from seconds or minutes to a lifetime. There are two kinds of memory: short-term memory (STM) and long-term memory (LTM). STM lasts for minutes to hours, which maybe mediated by modifications of molecules involved in synaptic functions. LTM lasts for days or longer, and may be due to the formation of new synapses or restructuring of existing synapses. LTM, but not STM, requires gene transcription and synthesis of proteins. CREB (cyclic-AMP Responsive Element Binding Protein) is one of the candidates plays an important role for enhancement of some types of LTM. CREB, a family of transcription factors, regulates the transcription of genes containing cAMP Responsive Elements (CRE). CRE is a nucleotide sequence often found in the promoter regions of genes that are binding sites for CREB.\nUsing a beta-lactamase reporter-gene under control of cAMP responsive element, a cell-based assay [CellSensor(TM) CRE-bla CHO developed by Invitrogen Corp.] was used to measure forskolin-induced signaling. Library compounds were measured for their ability to modulate positively or negatively the action of EC10 NKH 477, a water soluble forskolin, on reporter gene activity. Compounds were screened in a titration series in 1536-well format. Positive and negative modulators were identified based on the AC50 values derived from the screening data.\nNCGC Assay Protocol Summary\n2000 cells/5uL in Opti-MEM medium containing 0.5% dialyzed FBS, 0.1 mM NEAA, 1 mM sodium pyruvate and 10 mM HEPES was dispensed into 1536-well plates and cells were cultured at 37 degrees Celsius overnight. […] And then the plates were incubated at 37 degrees Celsius for 3 hours. 1 uL of CCF4-dye mixture was added to each well. After incubated at room temperature for 2 hours the plates were measured on an EnVision plate reader at Excitation 405nm, Emission1=460nm and Emission 2=530nm. The %Activity was determined from the ratio of 460nm/530nm.\nKeywords: NIH Roadmap, MLSCN, MLSMR, qHTS, NCGC, CRE, beta-lactamase reporter-gene assay.", "values": [
      {"smiles": "CC(=O)N1CN(CCCn2ccnc2)Cc2c1sc1c2CCCC1", "activity change, negative = inhibition": "inactive: 9.06%"},
      {"smiles": "N#Cc1cccc(NC(=O)CC2CCCCC2)c1", "Potency": "inconclusive: 5.01 µM [rising, single point]"},
      {"smiles": "Cc1oc(/N=C/c2ccccc2O)c(C#N)c1C", "activity change, negative = inhibition": "inactive: -7.88%"},
      {"smiles": "COc1ccc(NCc2ccc3c(c2)OCO3)cc1Cl", "Potency": "inconclusive: 0.398 µM [rising, partial curve, poor fit]"},
      {"smiles": "CCN(CC)C(=O)COc1ccc(Br)cc1Cl", "activity change, negative = inhibition": "inactive: 0.0913%"},
      {"smiles": "Cc1cc(C)n(-c2nc3ccccc3nc2N2CCN(C(=O)c3ccc(F)cc3)CC2)n1", "activity change, negative = inhibition": "inconclusive: -3.97%"},
      {"smiles": "O=C(NCCCn1ccnc1)c1cn(Cc2ccc(F)cc2)nn1", "activity change, negative = inhibition": "inactive: 5.48%"},
      {"smiles": "COc1ccc(-c2nc3cnc(N4CCOCC4)nc3n(Cc3cccs3)c2=O)cc1", "Potency": "active: 0.501 µM"},
      {"smiles": "COC(=O)c1cc2sc(Cl)cc2n1CC(=O)N1CCCc2ccccc21", "activity change, negative = inhibition": "inactive: -5.14%"},
      {"smiles": "COc1ccccc1N1CCN(CCN2C(=O)c3ccccc3C(C)(C)C2=O)CC1", "activity change, negative = inhibition": "inconclusive: -20.8%"},
      {"smiles": "Cc1ccc(C(=O)C2CCN(CC(=O)Nc3ccc(N(C)C)cc3)CC2)cc1", "activity change, negative = inhibition": "inactive: -5.6%"},
      {"smiles": "O=C(NCc1ccco1)C(Cc1ccccc1)N1C(=O)C2C3C=CC(C3)C2C1=O", "note": "(stereo not given)", "activity change, negative = inhibition": "inconclusive: -19.1%"},
      {"smiles": "O=C(O)c1ccccc1COc1ccccc1Cl", "activity change, negative = inhibition": "inconclusive: -17.2%"},
      {"smiles": "Cc1cc(N(C)C)c(C#N)c(N2CCCCC2)n1", "Potency": "inconclusive: 20 µM [rising, partial curve, poor fit]"},
      {"smiles": "COC(=O)c1oc2ccc(Br)cc2c1NC(=O)c1ccccc1", "activity change, negative = inhibition": "inactive: 0.739%"},
      {"smiles": "CCc1nnc(NC(=O)CC(=O)Nc2ccccc2C(=O)O)s1", "activity change, negative = inhibition": "inconclusive: -10.3%"},
      {"smiles": "CCc1cc(Br)ccc1N1C(=O)C2CC=CCC2C1=O", "note": "(stereo not given)", "activity change, negative = inhibition": "inconclusive: 27.9% [at 7.6 µM]"},
      {"smiles": "CCOC(=O)c1csc(Nc2nc3ccc(F)cc3s2)n1", "activity change, negative = inhibition": "inconclusive: 11.8%"},
      {"smiles": "Nc1nc(NC(=O)c2cccc(S(=O)(=O)N3CCCCCC3)c2)nc(-c2ccccc2)n1", "activity change, negative = inhibition": "inactive: 10.9%"},
      {"smiles": "C=C1C(CCl)(CCl)C2(Cl)C(Cl)C(Cl)C1(Cl)C2(Cl)Cl", "note": "(stereo not given)", "activity change, negative = inhibition": "inconclusive: -2.2%"},
      {"smiles": "O=c1cc(CN2CCC3(CC2)OCCO3)c2c(ccc3ccccc32)o1", "Potency": "inconclusive: 6.31 µM [rising, partial curve]"},
      {"smiles": "COc1cccc(-c2csc(N3CCN(CC(=O)Nc4ccc5c(c4)OCO5)CC3)n2)c1", "activity change, negative = inhibition": "inconclusive: -6%"},
      {"smiles": "O=C(O)C1C2C=CC(O2)C1C(=O)NC1CCCc2ccccc21", "note": "(stereo not given)", "activity change, negative = inhibition": "inconclusive: -15.3%"},
      {"smiles": "O=c1/c(=C/c2ccco2)sc2nc(-c3ccccc3Br)nn12", "activity change, negative = inhibition": "inactive: -26.9%"},
      {"smiles": "Nc1nc(CSc2ccccn2)nc(Nc2ccccc2)n1", "Potency": "inconclusive: 25.1 µM [rising, single point]"},
      {"smiles": "CN(C)C(=O)C(CCN1CCC(O)(c2ccc(Cl)cc2)CC1)(c1ccccc1)c1ccccc1", "Potency": "inconclusive: 12.6 µM [falling, partial curve]", "activity change, negative = inhibition": "inconclusive: -27.1% [at 17.1 µM]"},
      {"smiles": "COc1ccc(CNc2ncnc3ccc(-c4cccc(C#N)c4)cc23)c(OC)c1", "Potency": "active: 0.794 µM"},
      {"smiles": "Cc1cccc(N2CC(C(=O)O)CC2=O)c1", "note": "(stereo not given)", "activity change, negative = inhibition": "inconclusive: -6.55%"},
      {"smiles": "COC(=O)c1[nH]c2ccc(C)cc2c1NC(=O)CN1CCN(C(=O)c2ccccc2)CC1", "activity change, negative = inhibition": "inactive: 11.9%"},
      {"smiles": "Clc1ccc2nc(N3CCN(c4ccccc4)CC3)sc2c1", "activity change, negative = inhibition": "inactive: -3.27%"},
      {"smiles": "Cc1cc(C(F)(F)F)c2c(C)nn(CCc3nn[nH]n3)c2n1", "Potency": "inconclusive: 10 µM [rising, partial curve]"},
      {"smiles": "OC(COCc1ccco1)CN1CCN(C(c2ccccc2)c2ccccc2)CC1", "note": "(stereo not given)", "activity change, negative = inhibition": "inconclusive: -17%"},
      {"smiles": "CCc1nnc2c3cnn(-c4ccc(C)c(C)c4)c3ncn12", "activity change, negative = inhibition": "inactive: -0.938%"},
      {"smiles": "COc1ccc(CNc2ncnc3ccc(-c4c(C)noc4C)cc23)c(OC)c1", "Potency": "active: 5.01 µM"},
      {"smiles": "CCOC(=O)Cc1nn(CCc2ccccn2)c(=O)c2ccccc12", "Potency": "inconclusive: 15.8 µM [rising, single point]"},
      {"smiles": "COc1ccc(C2C(C(=O)NCc3ccco3)CCC(=O)N2c2ccc(OC)cc2)cc1", "note": "(stereo not given)", "activity change, negative = inhibition": "inconclusive: 12.7%"},
      {"smiles": "COc1ccc(CN(Cc2cc3cc(C)ccc3[nH]c2=O)C(=O)N(C)C)cc1", "activity change, negative = inhibition": "inactive: 7.14%"},
      {"smiles": "CCn1c2ccccc2c2cc(C3C(C#N)=C(C)NC(C)=C3C#N)ccc21", "Potency": "inconclusive: 3.98 µM [rising, single point]"},
      {"smiles": "O=C(COc1ccccc1)Nc1nc(-c2cccs2)cs1", "activity change, negative = inhibition": "inactive: 15.7%"},
      {"smiles": "COC(=O)c1cc(OC)c(OC)cc1NC(=O)CCC1CCCC1", "Potency": "inconclusive: 10 µM [rising, partial curve]"},
      {"smiles": "c1ccc(-c2noc(CSc3nnc(Cc4cccs4)n3-c3ccccc3)n2)cc1", "Potency": "inconclusive: 12.6 µM [rising, partial curve]"},
      {"smiles": "CCn1c(CSc2nnc(-c3cccnc3)n2-c2ccccc2C)nc2cc(C(=O)O)ccc21", "activity change, negative = inhibition": "inconclusive: 1.61%"},
      {"smiles": "CC(C)=CCC/C(C)=C/CN(CC(C)O)CC(C)O", "note": "(stereo not given)", "activity change, negative = inhibition": "inconclusive: 11.5%"},
      {"smiles": "COc1ccccc1N1CCN(S(=O)(=O)c2ccc(Cl)s2)CC1", "activity change, negative = inhibition": "inactive: -5.06%"},
      {"smiles": "Cc1cc(NC(=O)CCCC(=O)NCc2cccs2)no1", "Potency": "inconclusive: 20 µM [rising, single point]"},
      {"smiles": "Cn1nnnc1NCc1c(F)cccc1Cl", "activity change, negative = inhibition": "inconclusive: 2.02%"},
      {"smiles": "O=C(O)[C@H](Cc1ccc(O)c([N+](=O)[O-])c1)N1C(=O)c2ccccc2C1=O", "activity change, negative = inhibition": "inactive: 6.54% [at 7.6 µM]"},
      {"smiles": "CCOC(=O)C1CCN(C(=O)C2CC(=O)N(c3ccc(C)cc3)C2)CC1", "note": "(stereo not given)", "activity change, negative = inhibition": "inconclusive: -0.123%"},
      {"smiles": "CN1C(=O)c2oc3ccc(Br)cc3c(=O)c2C1c1ccncc1", "note": "(stereo not given)", "activity change, negative = inhibition": "inactive: -0.438%"},
      {"smiles": "CCOC(=O)CSc1nc2c(sc(=S)n2CCc2ccccc2)c(=O)n1Cc1ccco1", "activity change, negative = inhibition": "inconclusive: -9.71%"},
      {"smiles": "COc1cc2c3c(c1)C1(C(=O)N3C(C)(C)C=C2C)C(C#N)=C(N)Oc2cc(O)ccc21", "note": "(stereo not given)", "activity change, negative = inhibition": "inconclusive: 2.54%"},
      {"smiles": "COc1ccc(N2C(=O)CCC(C(C)=O)=C2C)cc1", "activity change, negative = inhibition": "inconclusive: -5.63% [at 7.6 µM]"},
      {"smiles": "O=C(Nc1cccc(-c2nnc(-c3ccccc3)o2)c1)C1CCCCC1", "activity change, negative = inhibition": "inactive: -8.12%"},
      {"smiles": "C=CCn1c(N2CCCC2)nc2c1c(=O)[nH]c(=O)n2C", "Potency": "inconclusive: 12.6 µM [rising, single point]"}
    ]}
  ]
}
